Reference: the supplement of paper PMC5499739
In all, about 16,000 sequences were measured (“Z-score”: median about -0.37, highest 2% from about 3.2 on). The list shows a part of the results.

test system: RBM10 RRM1-ZnF (GST-tagged construct); assay: RNAcompete 7-mer binding Z-score; higher = stronger binding preference
Description: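 RNAcompete: 20 pmol GST-tagged RBM10 RNA-binding constructs were incubated with a designed RNA pool of about 241,000 sequences up to 41 nt (1.5 nmol) on glutathione beads for 30 min at 4 °C and washed. Bound RNAs were identified by microarray hybridisation. Each RNA 7-mer is scored by a one-sided Z-score of its enrichment, computed over probes that contain the 7-mer within longer pool sequences.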

| Sequence | RNAcompete 7-mer binding Z-score |
| --- | --- |
| UUUCGAA | -0.678 |
| ACCACUG | -0.243 |
| UUCCCUU | -0.802 |
| GCUGGUU | 0.618 |
| ACCGUGU | -0.47 |
| UCUCCUC | -0.626 |
| UGCUGUA | -0.412 |
| CACGCAG | -0.155 |
| GCUCUGU | -0.711 |
| CCGGACC | -0.535 |
| CUUCUCU | -0.824 |
| GAUACAG | 0.862 |
| UCGAAAG | -0.0772 |
| AGGCAGA | 0.79 |
| ACCUUGG | -0.331 |
| UACACAA | -0.548 |
| AUAGGUU | 1.53 |
| GCUGUUU | -0.558 |
| UGGUGGG | 4.74 |
| AGUAAGA | 0.267 |
| CAAUGGA | 1.1 |
| AGUUUUU | -0.438 |
| GGUGGGA | 4.26 |
| CAAGUUG | -0.181 |

| Sequence | RNAcompete 7-mer binding Z-score |
| --- | --- |
| GGACGGC | 1.19 |
| AAGAGUA | 0.891 |
| CCUGGGU | 0.914 |
| GGUACAG | 1.72 |
| GAGCACG | 0.491 |
| GAUAGGG | 4.05 |
| GCCGAAC | -0.516 |
| UAUUUUU | -0.74 |
| CCUAAGG | -0.344 |
| UAAGGGC | 1.49 |
| UACUUGU | -0.535 |
| UUCGCGC | -0.714 |
| CUGCAUC | -0.811 |
| CUUGGUC | -0.746 |
| AGCCAAA | -0.467 |
| CAAACAU | -0.578 |
| CUGAUAC | -0.571 |
| AUUCGCC | -0.746 |
| CGUAGAC | -0.353 |
| CGUGAAA | -0.236 |
| AUCCCCG | -0.591 |
| CAUAUUC | -0.802 |
| GACAGCU | -0.642 |
| UUUGGGA | 1.62 |

| Sequence | RNAcompete 7-mer binding Z-score |
| --- | --- |
| CCCAAGC | -0.568 |
| AUACAUA | -0.269 |
| CUAGGUU | 0.082 |
| AUUGUUG | -0.0544 |
| GAGUACG | 0.469 |
| CUUAGUG | -0.282 |
| ACGUGGG | 2.43 |
| GGCGCUU | -0.184 |
| UCCCACA | -0.574 |
| UUCAGCU | -0.639 |
| UACGAGC | -0.383 |
| GUCGCGA | -0.178 |
| CAUAGGG | 1.51 |
| UGCGCCG | -0.256 |
| AUAAGCG | 0.144 |
| AUGCCUC | -0.753 |
| UGCCGUA | -0.665 |
| AAAAACU | -0.558 |
| CGAGCGA | 0.667 |
| ACUUAGC | -0.795 |
| UUACUGA | -0.578 |
| AGUUCUA | -0.701 |
| UGCACAA | -0.526 |
| UCUGGCC | -0.509 |

| Sequence | RNAcompete 7-mer binding Z-score |
| --- | --- |
| ACGCGUC | -0.37 |
| CUGGAGU | 0.569 |
| AAAUGCC | -0.48 |
| UAACAAG | -0.178 |
| UGUGAUA | 0.069 |
| CCGAAGG | 0.179 |
| UCAUGAU | -0.383 |
| GUGUGGG | 3.93 |
| AACCGAC | -0.724 |
| GACAAUG | 0.709 |
| GCUGUUC | -0.584 |
| CUCAGCC | -0.792 |
| GCACAUA | -0.464 |
| GCGCACG | -0.116 |
| CAUGAAU | -0.249 |
| UCGCAGA | -0.412 |
| UCCACGA | -0.662 |
| UUCACGA | -0.704 |
| UCAGCCG | -0.802 |
| CACUGUA | -0.327 |
| CGAGGCG | 0.949 |
| GCUCGAA | -0.425 |
| UAAUACG | -0.288 |
| CCAUAUG | -0.607 |

| Sequence | RNAcompete 7-mer binding Z-score |
| --- | --- |
| UGUUAUC | -0.457 |
| GGGGCGU | 2.64 |
| AGCCGGC | -0.571 |
| AACGAUG | 0.179 |
| CGUCUUU | -0.805 |
| UUUCUGU | -0.665 |
| UUUUUCA | -0.74 |
| GUUACAU | -0.357 |
| GACUCUG | -0.672 |
| GGAAGUG | 2.86 |
| AAUAUCC | -0.707 |
| CUUGUCC | -0.769 |
| ACACUCC | -0.769 |
| UCCCGCC | -0.467 |
| UUCCCGU | -0.753 |
| UUAAGGA | 1.1 |
| GUGGAUC | 1.04 |
| CACUUUG | -0.873 |
| CAAGCAU | -0.487 |
| GGGGAAU | 3.41 |
| CUCUAUC | -0.746 |
| CGACAUC | -0.733 |
| CUACUUA | -0.659 |
| GAUGGUU | 2.01 |

| Sequence | RNAcompete 7-mer binding Z-score |
| --- | --- |
| GAGGCCC | -0.334 |
| ACCGCAG | -0.623 |
| AACUAUA | -0.655 |
| GGACUGG | 2.16 |
| UGUUUGC | -0.34 |
| UUGACAG | 0.16 |
| AAGUGUU | 0.17 |
| CGUGAGA | 0.319 |
| CAUGGAG | 1.48 |
| CCUUCCU | -0.795 |
| GUAGCGU | 0.0528 |
| AGGAGAA | 2.11 |
| AUCCCGU | -0.714 |
| UUUCGAU | -0.655 |
| GAGCCUU | -0.818 |
| GCUGAAU | -0.0382 |
| UUGCCGC | -0.662 |
| UGACCAC | -0.49 |
| ACGGCUU | -0.363 |
| AGUAAAG | 0.625 |
| GGCAUGG | 2.18 |
| AAGAGCU | -0.191 |
| UGGCCGA | -0.00246 |
| CCGCGCA | -0.405 |

| Sequence | RNAcompete 7-mer binding Z-score |
| --- | --- |
| GUCGCGG | 0.923 |
| GGCACCC | 0.0203 |
| CAUGCCA | -0.707 |
| AAUAAUA | -0.409 |
| CCAAACA | -0.578 |
| GUUCGCA | -0.652 |
| CCACAUU | -0.834 |
| UGUUAAG | -0.0837 |
| CUCGGGC | -0.259 |
| CUUGGCG | -0.314 |
| CGUGGUC | 0.153 |
| CAAAGCA | -0.5 |
| ACAAGGC | 0.618 |
| CCUUCUC | -0.753 |
| UUAACCU | -0.798 |
| CUCCAAG | -0.613 |
| UAACCGA | -0.545 |
| GACUAAC | -0.626 |
| CUUAAGG | 0.316 |
| UCAACGG | 0.238 |
| AUCCCGC | -0.662 |
| GUGGGCA | 3.06 |
| AUCUUAA | -0.782 |
| CUAGACG | -0.35 |

| Sequence | RNAcompete 7-mer binding Z-score |
| --- | --- |
| UUUCAGG | -0.035 |
| UCUGAUU | -0.88 |
| ACUAUCG | -0.503 |
| CGUUGAC | -0.438 |
| UCUUCCC | -0.73 |
| GUUAUUA | -0.0577 |
| CAUGUAC | -0.422 |
| CUCGUGC | -0.789 |
| GCAGAAC | 0.202 |
| UGAAGGG | 3.82 |
| UGUUUAU | -0.47 |
| CGGCUAU | -0.571 |
| AACGCCG | -0.565 |
| CACGGUA | 0.231 |
| GCACGCA | -0.0447 |
| UCCGCGU | -0.412 |
| CAAGGUU | 1.51 |
| AAAUGAC | -0.334 |
| AAGUAAU | -0.347 |
| AACUACA | -0.552 |
| GAUCCCU | -0.808 |
| UCACCCA | -0.724 |
| ACCACGG | 0.192 |
| CUUCCCC | -0.461 |

| Sequence | RNAcompete 7-mer binding Z-score |
| --- | --- |
| UUUGUAU | -0.737 |
| AAAAUGG | 2.81 |
| AUAAGGU | 1.72 |
| CCGUGAU | -0.539 |
| AAAAUUA | -0.314 |
| ACCACUC | -0.62 |
| UAAGACA | -0.324 |
| GCCGCCC | -0.363 |
| CCUUCCG | -0.727 |
| UAUGCGC | -0.454 |
| AGAUCUU | -0.776 |
| GGUCGAA | 0.615 |
| AACUCGC | -0.724 |
| GGUCAUC | -0.0642 |
| AACUAAA | -0.399 |
| UUCAAAG | -0.467 |
| UUAUGCU | -0.828 |
| ACCCCAG | -0.435 |
| AGGAGUA | 1.5 |
| CGACAAC | -0.542 |
| UCGUGUC | -0.457 |
| AUUUCCA | -0.828 |
| AGGUGGA | 3.15 |
| AACCCGC | -0.678 |

| Sequence | RNAcompete 7-mer binding Z-score |
| --- | --- |
| CAAUAAC | -0.62 |
| CUGGUCA | -0.519 |
| AAAAUUU | -0.552 |
| AUUCAUU | -0.613 |
| UAUAUUU | -0.714 |
| CUAGCCU | -0.733 |
| CGCGAUC | -0.753 |
| UAAGCAC | -0.467 |
| CCUCACA | -0.691 |
| UUUGCCA | -0.857 |
| AAAUCUU | -0.711 |
| CCGCAGG | 0.0138 |
| AGGGCUU | 0.16 |
| AGUCAUU | -0.548 |
| UUCGACC | -0.795 |
| AGAAUAU | -0.201 |
| GACCGCA | -0.802 |
| CUCCGUG | -0.597 |
